Measurements: the supplement of paper PMC4967469

Tests used:
Assay in all cases: Viability of human cancer cell lines after 72 h of drug (GDSC screen)
Vinblastine = compound: CC[C@]1(O)C[C@@H]2CN(CCc3c([nH]c4ccccc34)[C@@](C(=O)OC)(c3cc4c(cc3OC)N(C)[C@H]3[C@@](O)(C(=O)OC)[C@H](OC(C)=O)[C@]5(CC)C=CCN6CC[C@]43[C@@H]65)C2)C1 [Vinblastine]; conditions: top dose 0.1 µM; top dose inferred
Procedure: (§1)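 Human cancer cell lines in 384-well plates, medium with 10% serum, drug for 72 h over a 256-fold dose range (nine 2-fold or five 4-fold steps up to the top dose). Adherent lines were fixed and stained with the nucleic acid dye Syto60, suspension lines read with resazurin; signal relative to control wells, capped at 0 and 100%. One two-parameter sigmoid per drug and line, fitted in a mixed model over all curves with the slope shared within a line.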

PF-562271 = compound: CN(c1ncccc1CNc1nc(Nc2ccc3c(c2)CC(=O)N3)ncc1C(F)(F)F)S(C)(=O)=O [PF-562271]; conditions: top dose 2.56 µM; top dose inferred
Procedure: as §1

Afatinib = compound: CN(C)C/C=C/C(=O)Nc1cc2c(Nc3ccc(F)c(Cl)c3)ncnc2cc1O[C@H]1CCOC1 [Afatinib]
Procedure: as §1

SNX-2112 = compound: CC1(C)CC(=O)c2c(C(F)(F)F)nn(-c3ccc(C(N)=O)c(N[C@H]4CC[C@H](O)CC4)c3)c2C1 [SNX-2112]; conditions: top dose 2.56 µM
Procedure: as §1

XMD13-2 = compound: O=C(NC1CC1)c1cccc(-c2ccc3c(NC(=O)C4CC4)n[nH]c3c2)c1 [XMD13-2]; conditions: top dose 10.24 µM; top dose inferred
Procedure: as §1

[1] = top dose 0.5 µM, screen: GDSC drug entry 1032
[2] = top dose 10 µM, screen: GDSC drug entry 1377, top dose inferred

Cell Line	AUC (Vinblastine)	IC50 (Vinblastine) [nM]	AUC (PF-562271)	IC50 (PF-562271) [nM]	AUC (Afatinib; [1])	IC50 (Afatinib; [1]) [nM]	AUC (Afatinib; [2])	IC50 (Afatinib; [2]) [nM]	AUC (SNX-2112)	IC50 (SNX-2112) [nM]	AUC (XMD13-2)	IC50 (XMD13-2) [nM]
GI-1 (glioma, adherent)	0.468	5.14	0.911	> 2560	0.986	> 500	0.966	> 10000	0.314	49.5	0.916	> 10200
GI-ME-N (neuroblastoma, adherent)	0.506	6.54	0.86	> 2560	0.971	> 500	0.954	> 10000	0.392	72.5	0.75	4460
GMS-10 (glioma, adherent)	0.586	10.8	0.982	> 2560	0.943	> 500			0.904	> 2560	0.986	> 10200
GOTO (neuroblastoma, adherent)	0.539	8.08	0.925	> 2560	0.984	> 500	0.975	> 10000	0.753	962	0.942	> 10200
GR-ST (lymphoblastic leukaemia, suspension)	0.534	7.87	0.938	> 2560	0.978	> 500	0.92	> 10000	0.361	60.6	0.789	5620
GRANTA-519 (B-cell lymphoma, suspension)	0.601	11.4	0.982	> 2560	0.991	> 500	0.97	> 10000	0.653	405	0.877	8510
GT3TKB (stomach, adherent)	0.246	1.3	0.922	> 2560	0.981	> 500	0.905	> 10000	0.518	178	0.958	> 10200
H4 (glioma, adherent)	0.515	6.87	0.863	2170	0.986	> 500	0.949	> 10000	0.548	216	0.908	> 10200
H9 (lymphoid neoplasm, suspension)	0.48	5.56	0.912	2550	0.992	> 500	0.95	> 10000	0.167	20.4	0.989	> 10200
H513 (mesothelioma, semi-adherent)	0.85	> 100	0.985	> 2560	0.957	> 500	0.86	> 10000	0.972	> 2560	0.971	> 10200
H2369 (mesothelioma, adherent)	0.41	3.5	0.98	> 2560	0.987	> 500	0.977	> 10000	0.538	204	0.954	> 10200
H2373 (mesothelioma, adherent)	0.701	26.9	0.949	> 2560	0.983	> 500	0.98	> 10000	0.811	1810	0.962	> 10200
H2461 (mesothelioma, adherent)	0.775	49.9	0.965	> 2560	0.982	> 500	0.961	> 10000	0.952	> 2560	0.983	> 10200
H2595 (mesothelioma, adherent)	0.597	12.8	0.915	> 2560	0.956	> 500	0.954	> 10000	0.969	> 2560	0.926	> 10200
H2722 (mesothelioma, adherent)	0.799	58.9	0.863	> 2560	0.984	> 500	0.923	> 10000	0.931	> 2560	0.971	> 10200
H2731 (mesothelioma, adherent)	0.681	21.6	0.948	> 2560	0.983	> 500	0.982	> 10000	0.893	> 2560	0.972	> 10200
H2795 (mesothelioma, adherent)	0.482	5.57	0.983	> 2560	0.94	> 500	0.986	> 10000	0.648	409	0.983	> 10200
H2869 (mesothelioma, adherent)	0.868	> 100	0.898	> 2560	0.984	> 500	0.982	> 10000	0.716	767	0.9	> 10200
H3118 (head and neck, adherent)	0.503	6.35	0.841	2030	0.28	6.98	0.161	50.3	0.374	69.3	0.883	> 10200
HA7-RCC (kidney, adherent)	0.777	44.3	0.971	> 2560	0.963	> 500	0.909	> 10000	0.842	2080	0.963	> 10200
HAL-01 (lymphoblastic leukaemia, suspension)	0.758	31.1	0.949	> 2560	0.958	> 500	0.968	> 10000	0.394	85	0.906	> 10200
HC-1 (hairy cell leukaemia, suspension)	0.862	80.3	0.94	> 2560	0.987	> 500	0.961	> 10000	0.236	28.6	0.749	3190

Cell Line	AUC (Vinblastine)	IC50 (Vinblastine) [nM]	AUC (PF-562271)	IC50 (PF-562271) [nM]	AUC (Afatinib; [1])	IC50 (Afatinib; [1]) [nM]	AUC (Afatinib; [2])	IC50 (Afatinib; [2]) [nM]	AUC (SNX-2112)	IC50 (SNX-2112) [nM]	AUC (XMD13-2)	IC50 (XMD13-2) [nM]
HCC1143 (breast, adherent)	0.657	20.5	0.867	> 2560	0.862	> 500	0.921	> 10000	0.478	136	0.957	> 10200
HCC1395 (breast, adherent)	0.598	12.3	0.973	> 2560	0.985	> 500	0.977	> 10000	0.948	> 2560	0.951	> 10200
HCC1419 (breast, adherent)	0.72	34.8	0.98	> 2560	0.787	325	0.73	3800	0.838	> 2560	0.954	> 10200
HCC1569 (breast, adherent)	0.78	56.2	0.956	> 2560	0.861	> 500	0.837	> 10000	0.811	1960	0.952	> 10200
HCC1954 (breast, adherent)	0.782	49.4	0.975	> 2560	0.964	> 500	0.677	2120	0.911	> 2560	0.841	8940
HCC2157 (breast, suspension)	0.742	32.2	0.899	> 2560	0.719	135	0.895	> 10000	0.987	> 2560	0.917	> 10200
HCC2218 (breast, suspension)	0.914	> 100	0.968	> 2560	0.543	42.2	0.368	245	0.737	919	0.869	> 10200
HCC2998 (large intestine, adherent)	0.544	8.22	0.906	> 2560	0.978	> 500			0.736	738	0.964	> 10200
HCC-44 (lung adenocarcinoma, adherent)	0.372	2.79	0.879	2530	0.9	> 500	0.973	> 10000	0.353	63.4	0.918	> 10200
HCC-56 (large intestine, adherent)	0.873	> 100	0.935	> 2560	0.944	> 500	0.845	7460	0.745	821	0.898	> 10200
HCC-78 (lung adenocarcinoma, adherent)	0.596	12	0.915	> 2560	0.881	> 500	0.914	> 10000	0.9	> 2560	0.909	> 10200
HCT-15 (large intestine, adherent)	0.904	> 100	0.986	> 2560	0.985	> 500	0.985	> 10000	0.568	248	0.972	> 10200
HD-MY-Z (Hodgkin lymphoma, adherent)	0.418	3.73	0.986	> 2560	0.983	> 500	0.952	> 10000	0.383	76.3	0.862	8840
HDLM-2 (Hodgkin lymphoma, suspension)	0.423	3.86	0.964	> 2560	0.984	> 500	0.98	> 10000	0.957	> 2560	0.973	> 10200
HDQ-P1 (breast, adherent)	0.798	58.4	0.935	> 2560	0.801	299	0.914	> 10000	0.869	> 2560	0.959	> 10200
HEC-1 (endometrium, adherent)	0.588	10.8	0.955	> 2560	0.948	> 500	0.987	> 10000	0.983	> 2560	0.981	> 10200
HGC-27 (stomach, adherent)	0.319	2.13	0.839	1380	0.988	> 500	0.986	> 10000	0.501	161	0.933	> 10200
HH (T-cell leukaemia, suspension)	0.527	7.61	0.929	> 2560	0.964	> 500	0.863	> 10000	0.292	33.7	0.819	8500
HL-60 (acute myeloid leukaemia, suspension)	0.446	4.51	0.92	> 2560	0.964	> 500	0.989	> 10000	0.315	51.7	0.879	8650
HMV-II (melanoma, adherent)	0.637	16.3	0.853	> 2560	0.978	> 500	0.98	> 10000	0.689	616	0.873	> 10200
HN (head and neck, adherent)	0.483	5.63	0.984	> 2560	0.717	123	0.505	643	0.884	2480	0.988	> 10200
HO-1-u-1 (head and neck, adherent)	0.64	15	0.927	> 2560	0.7	111	0.937	> 10000	0.738	739	0.968	> 10200

The IC50 comes from the fitted curve, where viability falls to half of the control; a limit (>, <) means that the fit lies beyond the doses tested. The AUC spans the tested range (256-fold, ending at the top dose) of the same fit; it is 1 without any effect and falls as sensitivity rises. For some assays here: An inferred top dose is not printed in the source and was worked back from the curve model. For some assays here: Where an entry number is given, a second screen of the drug exists; the two often differ.
